# Some of the results follow.
# What was measured:
# Assay in all cases: glycan array binding signal (z-score within array); higher = stronger binding
# Conditions in all cases: glycan notation: IUPAC condensed, linker removed
# Fuc(a1-2)Gal = molecular target: Fuc(a1-2)Gal
# Summary of the method: (§1)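 Glycan array data came from 3228 arrays in the Consortium for Functional Glycomics database, and only arrays with an available protein sequence were kept. Glycan names were put into IUPAC-condensed notation, and columns mapping to the same glycan were averaged. The binding signal is a within-array Z-score, averaged across arrays of one protein sequence run at different concentrations or buffers and across linkers. A negative Z-score can be read as non-binding.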
# Fuc(a1-2)Gal(b1-3)GalNAc = molecular target: Fuc(a1-2)Gal(b1-3)GalNAc
# Summary of the method: as §1
# [1] = molecular target: Fuc(a1-2)Gal(b1-3)GalNAc(a1-3)[Fuc(a1-2)]Gal(b1-4)Glc
# Summary of the method: as §1
# [2] = molecular target: Fuc(a1-2)Gal(b1-3)GalNAc(a1-3)[Fuc(a1-2)]Gal(b1-4)GlcNAc
# Summary of the method: as §1
# [3] = molecular target: Fuc(a1-2)Gal(b1-3)GalNAc(b1-3)Gal
# Summary of the method: as §1
# [4] = molecular target: Fuc(a1-2)Gal(b1-3)GalNAc(b1-3)Gal(a1-4)Gal(b1-4)Glc
# Summary of the method: as §1
# [5] = molecular target: Fuc(a1-2)Gal(b1-3)GalNAc(b1-4)[Neu5Ac(a2-3)]Gal(b1-4)Glc
# Summary of the method: as §1
# Fuc(a1-2)Gal(b1-3)GlcNAc = molecular target: Fuc(a1-2)Gal(b1-3)GlcNAc
# Summary of the method: as §1
# [6] = molecular target: Fuc(a1-2)Gal(b1-3)GlcNAc(b1-2)Man(a1-3)[Fuc(a1-2)Gal(b1-3)GlcNAc(b1-2)Man(a1-6)]Man(b1-4)GlcNAc(b1-4)GlcNAc
# Summary of the method: as §1
# [7] = molecular target: Fuc(a1-2)Gal(b1-3)GlcNAc(b1-2)Man(a1-3)[Fuc(a1-2)Gal(b1-3)GlcNAc(b1-2)Man(a1-6)]Man(b1-4)GlcNAc(b1-4)[Fuc(a1-6)]GlcNAc
# Summary of the method: as §1
# [8] = molecular target: Fuc(a1-2)Gal(b1-3)GlcNAc(b1-3)Gal(b1-4)Glc
# Summary of the method: as §1
# [9] = molecular target: Fuc(a1-2)Gal(b1-3)GlcNAc(b1-3)GalNAc
# Summary of the method: as §1
# [10] = molecular target: Fuc(a1-2)Gal(b1-3)GlcNAc(b1-3)[Fuc(a1-2)Gal(b1-3)GlcNAc(b1-6)]GalNAc
# Summary of the method: as §1
# [11] = molecular target: Fuc(a1-2)Gal(b1-3)GlcNAc(b1-3)[Gal(b1-4)GlcNAc(b1-6)]Gal(b1-4)Glc
# Summary of the method: as §1
# [12] = molecular target: Fuc(a1-2)Gal(b1-3)GlcNAc(b1-3)[Neu5Ac(a2-6)Gal(b1-4)GlcNAc(b1-6)]Gal(b1-4)Glc
# Summary of the method: as §1
# [13] = molecular target: Fuc(a1-2)Gal(b1-3)GlcNAc6S
# Summary of the method: as §1
# [14] = molecular target: Fuc(a1-2)Gal(b1-3)[Fuc(a1-4)]GlcNAc
# Summary of the method: as §1
# [15] = molecular target: Fuc(a1-2)Gal(b1-3)[Fuc(a1-4)]GlcNAc(b1-2)Man(a1-3)[Fuc(a1-2)Gal(b1-3)[Fuc(a1-4)]GlcNAc(b1-2)Man(a1-3)]Man(b1-4)GlcNAc(b1-4)GlcNAc
# Summary of the method: as §1
# [16] = molecular target: Fuc(a1-2)Gal(b1-3)[Fuc(a1-4)]GlcNAc(b1-2)Man(a1-3)[Fuc(a1-2)Gal(b1-3)[Fuc(a1-4)]GlcNAc(b1-2)Man(a1-6)]Man(b1-4)GlcNAc(b1-4)[Fuc(a1-6)]GlcNAc(b1-4)[Fuc(a1-6)]GlcNAc
# Summary of the method: as §1
# [17] = molecular target: Fuc(a1-2)Gal(b1-3)[Fuc(a1-4)]GlcNAc(b1-3)[Fuc(a1-3)[Gal(b1-4)]GlcNAc(b1-6)]Gal(b1-4)Glc
# Summary of the method: as §1
# [18] = molecular target: Fuc(a1-2)Gal(b1-3)[Fuc(a1-4)]GlcNAc(b1-3)[Gal(b1-4)GlcNAc(b1-6)]Gal(b1-4)Glc
# Summary of the method: as §1
# Fuc(a1-2)Gal(b1-4)Glc = molecular target: Fuc(a1-2)Gal(b1-4)Glc
# Summary of the method: as §1
# Fuc(a1-2)Gal(b1-4)Glc6S = molecular target: Fuc(a1-2)Gal(b1-4)Glc6S
# Summary of the method: as §1
# Fuc(a1-2)Gal(b1-4)GlcNAc = molecular target: Fuc(a1-2)Gal(b1-4)GlcNAc
# Summary of the method: as §1
# [19] = molecular target: Fuc(a1-2)Gal(b1-4)GlcNAc(b1-2)Man
# Summary of the method: as §1
# [20] = molecular target: Fuc(a1-2)Gal(b1-4)GlcNAc(b1-2)Man(a1-3)[Fuc(a1-2)Gal(b1-4)GlcNAc(b1-2)Man(a1-6)]Man(b1-4)GlcNAc(b1-4)GlcNAc
# Summary of the method: as §1
# [21] = molecular target: Fuc(a1-2)Gal(b1-4)GlcNAc(b1-2)Man(a1-3)[Fuc(a1-2)Gal(b1-4)GlcNAc(b1-2)Man(a1-6)]Man(b1-4)GlcNAc(b1-4)[Fuc(a1-6)]GlcNAc
# Summary of the method: as §1
# [22] = molecular target: Fuc(a1-2)Gal(b1-4)GlcNAc(b1-2)[Fuc(a1-2)Gal(b1-4)GlcNAc(b1-4)]Man(a1-3)[Fuc(a1-2)Gal(b1-4)GlcNAc(b1-2)Man(a1-6)]Man(b1-4)GlcNAc(b1-4)GlcNAc
# Summary of the method: as §1
# [23] = molecular target: Fuc(a1-2)Gal(b1-4)GlcNAc(b1-3)Gal(b1-4)GlcNAc
# Summary of the method: as §1
# [24] = molecular target: Fuc(a1-2)Gal(b1-4)GlcNAc(b1-3)Gal(b1-4)GlcNAc(b1-2)Man(a1-3)[Fuc(a1-2)Gal(b1-4)GlcNAc(b1-3)Gal(b1-4)GlcNAc(b1-2)Man(a1-6)]Man(b1-4)GlcNAc(b1-4)GlcNAc
# Summary of the method: as §1
# [25] = molecular target: Fuc(a1-2)Gal(b1-4)GlcNAc(b1-3)Gal(b1-4)GlcNAc(b1-3)Gal(b1-4)GlcNAc
# Summary of the method: as §1
# [26] = molecular target: Fuc(a1-2)Gal(b1-4)GlcNAc(b1-3)GalNAc
# Summary of the method: as §1
# [27] = molecular target: Fuc(a1-2)Gal(b1-4)GlcNAc(b1-3)[Fuc(a1-2)Gal(b1-4)GlcNAc(b1-6)]GalNAc
# Summary of the method: as §1
# [28] = molecular target: Fuc(a1-2)Gal(b1-4)GlcNAc(b1-3)[Fuc(a1-3)[Gal(b1-4)]GlcNAc(b1-6)]Gal(b1-4)Glc
# Summary of the method: as §1
# [29] = molecular target: Fuc(a1-2)Gal(b1-4)GlcNAc(b1-6)GalNAc
# Summary of the method: as §1
# [30] = molecular target: Fuc(a1-2)Gal(b1-4)GlcNAc6S
# Summary of the method: as §1
# [31] = molecular target: Fuc(a1-2)Gal(b1-4)[Fuc(a1-3)]GlcNAc
# Summary of the method: as §1
# [32] = molecular target: Fuc(a1-2)Gal(b1-4)[Fuc(a1-3)]GlcNAc(b1-2)Man(a1-3)[Fuc(a1-2)Gal(b1-4)[Fuc(a1-3)]GlcNAc(b1-2)Man(a1-6)]Man(b1-4)GlcNAc(b1-4)[Fuc(a1-6)]GlcNAc
# Summary of the method: as §1
# [33] = molecular target: Fuc(a1-2)Gal(b1-4)[Fuc(a1-3)]GlcNAc(b1-2)[Fuc(a1-2)Gal(b1-4)[Fuc(a1-3)]GlcNAc(b1-4)]Man(a1-3)[Fuc(a1-2)Gal(b1-4)[Fuc(a1-3)]GlcNAc(b1-2)Man(a1-6)]Man(b1-4)GlcNAc(b1-4)GlcNAc
# Summary of the method: as §1
# [34] = molecular target: Fuc(a1-2)Gal(b1-4)[Fuc(a1-3)]GlcNAc(b1-3)Gal(b1-4)[Fuc(a1-3)]GlcNAc
# Summary of the method: as §1
# [35] = molecular target: Fuc(a1-2)Gal(b1-4)[Fuc(a1-3)]GlcNAc(b1-3)Gal(b1-4)[Fuc(a1-3)]GlcNAc(b1-3)Gal(b1-4)[Fuc(a1-3)]GlcNAc
# Summary of the method: as §1
# [36] = molecular target: Fuc(a1-2)Gal(b1-4)[Fuc(a1-3)]GlcNAc(b1-3)GalNAc
# Summary of the method: as §1
# [37] = molecular target: Fuc(a1-2)Gal(b1-4)[Fuc(a1-3)]GlcNAc(b1-3)[Neu5Ac(a2-6)Gal(b1-4)GlcNAc(b1-6)]Gal(b1-4)Glc
# Summary of the method: as §1
# [38] = molecular target: Fuc(a1-2)Gal3S(b1-4)GlcNAc
# Summary of the method: as §1
# [39] = molecular target: Fuc(a1-2)Gal6S(b1-3)GlcNAc
# Summary of the method: as §1
binder,measurement,setting,value
GNL (Galanthus nivalis) (protein) MGHHHHHHHHYGTLENGHWLMVGMSIFSKDRTVELRMQDDGKLAIYYNDHCAWQSTAQQVNNAKGAVMQGDGNFCIYDKNGKATWHTNTAAPSGDSHTFVSVQDDGNLVLYKNNGATPIWSSKSNK,glycan array binding signal (z-score),Fuc(a1-2)Gal,-0.071
same,glycan array binding signal (z-score),Fuc(a1-2)Gal(b1-3)GalNAc,-0.254
same,glycan array binding signal (z-score),[1],-0.245
same,glycan array binding signal (z-score),[2],-0.275
same,glycan array binding signal (z-score),[3],-0.245
same,glycan array binding signal (z-score),[4],-0.184
same,glycan array binding signal (z-score),[5],-0.202
same,glycan array binding signal (z-score),Fuc(a1-2)Gal(b1-3)GlcNAc,-0.187
same,glycan array binding signal (z-score),[6],1.93
same,glycan array binding signal (z-score),[7],-0.017
same,glycan array binding signal (z-score),[8],-0.249
same,glycan array binding signal (z-score),[9],-0.167
same,glycan array binding signal (z-score),[10],-0.235
same,glycan array binding signal (z-score),[11],-0.277
same,glycan array binding signal (z-score),[12],-0.216
same,glycan array binding signal (z-score),[13],-0.251
same,glycan array binding signal (z-score),[14],-0.262
same,glycan array binding signal (z-score),[15],-0.212
same,glycan array binding signal (z-score),[16],-0.198
same,glycan array binding signal (z-score),[17],-0.176
same,glycan array binding signal (z-score),[18],-0.236
same,glycan array binding signal (z-score),Fuc(a1-2)Gal(b1-4)Glc,-0.212
same,glycan array binding signal (z-score),Fuc(a1-2)Gal(b1-4)Glc6S,-0.187
same,glycan array binding signal (z-score),Fuc(a1-2)Gal(b1-4)GlcNAc,-0.168
same,glycan array binding signal (z-score),[19],-0.231
same,glycan array binding signal (z-score),[20],-0.162
same,glycan array binding signal (z-score),[21],-0.071
same,glycan array binding signal (z-score),[22],-0.229
same,glycan array binding signal (z-score),[23],-0.169
same,glycan array binding signal (z-score),[24],0.093
same,glycan array binding signal (z-score),[25],-0.239
same,glycan array binding signal (z-score),[26],-0.168
same,glycan array binding signal (z-score),[27],-0.207
same,glycan array binding signal (z-score),[28],-0.268
same,glycan array binding signal (z-score),[29],-0.115
same,glycan array binding signal (z-score),[30],-0.23
same,glycan array binding signal (z-score),[31],-0.248
same,glycan array binding signal (z-score),[32],-0.188
same,glycan array binding signal (z-score),[33],-0.214
same,glycan array binding signal (z-score),[34],-0.272
same,glycan array binding signal (z-score),[35],-0.194
same,glycan array binding signal (z-score),[36],-0.137
same,glycan array binding signal (z-score),[37],-0.236
same,glycan array binding signal (z-score),[38],-0.253
same,glycan array binding signal (z-score),[39],-0.243

# Source: the supplement of paper PMC8728848
